# Assay results reported in PubChem BioAssay AID1745853 (National Center for Advancing Translational Sciences (NCATS), 2022).
# The other results are listed elsewhere or left out. These are further read-outs of the screen, such as a control signal, another cell line or another target. No call is given for them.
# Experiments:
# Test in all cases: Primary Screen for Target Class Profiling of Small Molecule Inhibitors of Methyltransferases
# [1] = biological target: Glycine N-methyltransferase (Homo sapiens) (UniProt Q14749); conditions: purified enzyme, MTase-Glo SAH luminescence; measured here: GNMT inhibition; at 40 µM; stronger effect = lower value
# Summary of the method: (§1)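 Each enzyme was reacted with SAM and its substrate, with compounds tested once at 40 uM; SAH formed was read by MTase-Glo luminescence.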
# [2] = biological target: Guanidinoacetate N-methyltransferase (Homo sapiens) (UniProt Q14353); conditions: purified enzyme, MTase-Glo SAH luminescence; measured here: GAMT inhibition; at 40 µM; stronger effect = lower value
# Summary of the method: as §1
# [3] = biological target: Histamine N-methyltransferase (Homo sapiens) (UniProt P50135); conditions: purified enzyme, MTase-Glo SAH luminescence; measured here: HNMT inhibition; at 40 µM; stronger effect = lower value
# Summary of the method: as §1
# [4] = biological target: Nicotinamide N-methyltransferase (Homo sapiens) (UniProt P40261); conditions: purified enzyme, MTase-Glo SAH luminescence; measured here: NNMT inhibition; at 40 µM; stronger effect = lower value
# Summary of the method: as §1
# [5] = biological target: Phenylethanolamine N-methyltransferase (Homo sapiens) (UniProt P11086); conditions: purified enzyme, MTase-Glo SAH luminescence; measured here: PNMT inhibition; at 40 µM; stronger effect = lower value
# Summary of the method: as §1
# On the % scale 0 is the no-effect control and ±100 the full control effect.
SMILES,"activity change, negative = inhibition [1]","activity change, negative = inhibition [2]","activity change, negative = inhibition [3]","activity change, negative = inhibition [4]","activity change, negative = inhibition [5]"
COC(=O)Cn1c(=O)oc2cc(S(=O)(=O)NCC(C)c3ccccc3)ccc21 (stereo not given),2.9%,0%,5.55%,3.9%,3.97%
O=c1n(-c2ccncc2)nc2n1CCN(Cc1ccsc1)C2,-10.3%,-8.07%,-7.12%,-16.1%,-10.3%
CC(=O)OC1C[C@]2(C)C(O)CC(C)=C[C@H](OC(=O)c3ccc(O)cc3)C2[C@]1(O)C(C)C (stereo not given in full),-8.15%,2.53%,-0.322%,-9.83%,-2.44%
CCOC(=O)c1cc2n(n1)CC(C)(C(=O)NC1CCCCCC1)N(Cc1ccc3c(c1)OCO3)C2=O (stereo not given),-2.22%,0%,-2.55%,-3.19%,2.03%
CCN(CC)CCCN1C(=O)c2cc3oc(C)cc3n2CC1(C)C(=O)NC1CCCCC1 (stereo not given),7.21%,0%,3.19%,10.1%,2.44%
CCCN1C(=O)c2cc3c(OC)ccc(OC)c3n2CC1(C)C(=O)NC1CCCC(C)C1C (stereo not given),-1.69%,0%,3.65%,0.363%,-0.671%
Cc1ccc(NC(=O)CN(C)S(=O)(=O)c2ccc3[nH]c4c(c3c2)CCCC4)c(Cl)c1,-1.5%,1.26%,3.28%,-4.76%,0.845%
Cc1cnn(CCC(=O)N2CCCC(c3nnc(Cn4ccnc4)n3C)C2)c1 (stereo not given),-1.94%,-1.46%,1.04%,3.81%,7.06%
COc1cccc(S(=O)(=O)N2C[C@@H](Oc3cccnc3)C[C@H]2C(=O)NC2CC2)c1,-8.81%,-16.9%,-5.7%,-14.9%,-11.4%
C=CCNC(=O)N1CC[C@H]2CC(=O)N(C3CC3)CC[C@H]2C1,-6.99%,-6.11%,-3.82%,-8.87%,-6.03%
COc1ccc(CN2C(=O)CO[C@H]3CN(C(=O)C4CC4)C[C@H]32)cc1,-4.14%,-5.2%,-3.62%,-11.3%,-3.01%
CCC1c2ccc(C)n2CCN1C(=O)Nc1ccccc1C (stereo not given),0.832%,0%,-0.194%,-1.56%,-1.29%
CNC1CCC(N(Cc2cccc(-c3ccncc3)c2)C(=O)c2sc3ccccc3c2Cl)CC1 (stereo not given),-27.9%,-3.37%,-75%,-76.9%,-19.3%
NC(=O)c1ccc2nc(-c3ccc(Oc4ccc(Cl)cc4)cc3)[nH]c2c1,-11.1%,11.5%,-42.5%,-43.4%,-9.35%
CCc1ccc(CN2C(=O)c3cc4ccccc4n3CC2(C)C(=O)NCc2ccccc2OC)cc1 (stereo not given),8.66%,0%,6.7%,11%,0.832%
O=C(/C=C/c1ccc(O)cc1)OCC1=CC2OC(=O)C3=CO[C@@H](O[C@@H]4O[C@H](CO)[C@@H](O)[C@H](O)[C@H]4O)[C@H]1[C@@H]32 (stereo not given in full),-6.28%,-5.98%,7.3%,-15.4%,2%
O=C(C1CCC1)N1CCOc2ccc(CN3CCc4ccccc4C3)cc2C1,-6.62%,-7.87%,-30.4%,-14.2%,-13.9%
C=CCNC(=O)N[C@H]1CCN(C(=O)CSC)[C@@H]1C(=O)N1CCC[C@@H]1C(N)=O,-3.32%,-8.75%,-2.41%,-13.6%,8.38%
CC1(C(=O)NC2CCCC2)Cn2cnc(C(=O)NCCCc3ccccc3)c2C(=O)N1C1CC1 (stereo not given),3.76%,0%,5.94%,0.718%,3.91%
Cc1nc2cnccn2c1C(=O)NCc1ccccc1,-8.24%,-10.4%,-6.05%,-19.7%,-6.27%

SMILES,"activity change, negative = inhibition [1]","activity change, negative = inhibition [2]","activity change, negative = inhibition [3]","activity change, negative = inhibition [4]","activity change, negative = inhibition [5]"
CCn1c(=O)n(CC)c2cc(S(=O)(=O)Nc3ccc(Br)cc3F)ccc21,2.67%,0.517%,3.35%,-4.75%,3.6%
CN(C)C[C@@H]1CN(c2ncccn2)C[C@H]1NS(=O)(=O)Cc1ccc(F)cc1,-0.124%,1.25%,0.373%,-3.88%,13.4%
Fc1ccc(OC2CN(CC3CCCCC3)C2)c(F)c1,-2.68%,-1.52%,0.438%,-4.23%,-0.339%
Cc1c(F)cccc1NC(=O)N1C[C@@H](F)C[C@H]1C(=O)N1CCOCC1,2.1%,2.49%,0.092%,3.5%,1.02%
CCNC(=O)[C@@H]1C[C@H](N)CN1C(=O)c1cnc(-c2cccnc2)nc1C,0.212%,-2.07%,-0.711%,-1.96%,-4.91%
Cc1nc2c3ccccc3n3c(CCCC(=O)NCC(C)c4ccccc4)nnc3n2n1 (stereo not given),-9.55%,1.55%,7.67%,11.3%,2.59%
CN(CC1CCOCC1)S(=O)(=O)c1ccc(Cl)s1,0.58%,1.6%,2.33%,-2.26%,1.52%
CCn1c2c(c(=O)n1Cc1ccccc1)CCN(C(=O)c1scnc1C)C2,-4.32%,-7.35%,-2.56%,-17.8%,-10.4%
CN1C(=O)c2cc3ccccc3n2CC1(C)C(=O)NCC(=O)NCc1cccc(F)c1 (stereo not given),-5.37%,3.41%,-4.47%,4.37%,-2.93%
OCC1(CCCc2ccccc2)CCCNC1 (stereo not given),-6.59%,-9.08%,-6.5%,-9.92%,-17.5%
COc1cccc(CN2CCCC3(CNc4ccccc4[S+](=O)([O-])N3)C2)c1 (stereo not given),-67.8%,-9.03%,-5.74%,-18.8%,-12.6%
COc1ccc(N2C(=O)c3c(NC(C)=O)c4cc(F)ccc4n3CC2(C)C(=O)NC2CCCC2)cc1 (stereo not given),-2.54%,1.04%,4.51%,7.06%,1.32%
CN(CC(=O)NCc1ccccc1)S(=O)(=O)c1ccc2[nH]c3c(c2c1)CCCC3,4.42%,1.29%,5.34%,-2.9%,2.99%
CCCNC(=O)CCn1ccc2cc(S(=O)(=O)N3CCCC3)ccc21,4.95%,1.39%,6.97%,5.84%,4.19%
C=C1C[C@H](O)[C@@H](O)[C@@]2(C)C1[C@@H](O)[C@H]1OC(=O)C3[C@@H](C)[C@@H](O)[C@H](O)C2[C@]31C (stereo not given in full),4.3%,2.81%,12.9%,-10.3%,-5.39%
CSc1ccc(-c2ccc3c(c2)C(=O)N2CCN(C(=O)CCC(=O)O)C[C@@H]2C(=O)N3)cc1,-3.15%,-0.429%,0.487%,0.766%,4.97%
O[C@]1(c2ccccc2)CCN(Cc2ccncc2)C[C@H]1N1CCCC1,-15%,-9.74%,-14.1%,-13.8%,-6.79%
O=C(Nc1ccc(Cl)cc1)c1ccccc1NCc1ccncc1,-0.165%,1.59%,6.1%,-16.7%,1.01%
CCOc1ccc(-c2cc3n(n2)CC(C)(C(=O)NCCC(C)C)N(Cc2ccc(OC)cc2)C3=O)cc1 (stereo not given),1.43%,3.19%,-3.67%,-0.478%,-12.5%
